Assay results published in publication PMC5700166.
The list shows a part of the results, in another mix than the full data. The list includes weakly bound sequences.

Columns and labels:
Assay in all cases: protein-binding microarray (PBM)
Conditions in all cases: PBM: ~300 nM protein, 6 mM HEPES pH 7.8, 80 mM KCl, 0.5 mM EDTA, 0.5 mM EGTA, 6% glycerol, 35 ng/ul poly-dIdC, 1% milk, 1 h, room temperature; Ap Aiptasia and Nv Nematostella (sea anemones) / Co Capsaspora / Aq Amphimedon (sponge) / Dm Drosophila / Hu human; RHD is the Rel homology domain; high values mean tight binding; most listed sequences are background and not binding sites; double strand, one strand shown
GST-Ap-NF-kB RHD = molecular target: T1, GST-Ap-NF-kB RHD (UniProt A0A913YAJ5)
T1 sequence: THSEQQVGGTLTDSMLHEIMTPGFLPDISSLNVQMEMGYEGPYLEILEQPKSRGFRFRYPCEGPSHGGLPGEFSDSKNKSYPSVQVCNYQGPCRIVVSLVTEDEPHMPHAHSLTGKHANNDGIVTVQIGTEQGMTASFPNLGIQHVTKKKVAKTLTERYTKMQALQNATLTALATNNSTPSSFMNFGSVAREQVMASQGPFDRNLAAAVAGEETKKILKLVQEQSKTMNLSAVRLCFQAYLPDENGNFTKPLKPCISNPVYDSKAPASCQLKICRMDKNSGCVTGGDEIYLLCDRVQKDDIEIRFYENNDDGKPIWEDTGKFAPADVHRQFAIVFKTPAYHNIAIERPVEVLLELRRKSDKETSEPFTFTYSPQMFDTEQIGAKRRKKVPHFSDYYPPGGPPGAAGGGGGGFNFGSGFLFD

[1] = molecular target: T2, GST-Nv-NF-kB (Cys allele) (UniProt E5G601)
T2 sequence: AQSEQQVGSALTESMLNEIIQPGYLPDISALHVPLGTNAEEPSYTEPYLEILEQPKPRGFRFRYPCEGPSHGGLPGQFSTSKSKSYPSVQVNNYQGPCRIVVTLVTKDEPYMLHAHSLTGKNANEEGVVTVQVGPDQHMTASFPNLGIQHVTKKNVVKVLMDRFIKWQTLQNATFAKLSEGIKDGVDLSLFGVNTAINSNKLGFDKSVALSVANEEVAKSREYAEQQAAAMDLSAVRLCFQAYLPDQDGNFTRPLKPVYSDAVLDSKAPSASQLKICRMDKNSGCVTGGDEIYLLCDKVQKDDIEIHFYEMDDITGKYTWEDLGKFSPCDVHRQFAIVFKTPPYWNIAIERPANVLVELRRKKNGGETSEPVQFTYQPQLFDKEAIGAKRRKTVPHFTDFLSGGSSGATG

GST-Co-NF-kB = molecular target: T3, GST-Co-NF-kB (UniProt F1ARL5)
T3 sequence: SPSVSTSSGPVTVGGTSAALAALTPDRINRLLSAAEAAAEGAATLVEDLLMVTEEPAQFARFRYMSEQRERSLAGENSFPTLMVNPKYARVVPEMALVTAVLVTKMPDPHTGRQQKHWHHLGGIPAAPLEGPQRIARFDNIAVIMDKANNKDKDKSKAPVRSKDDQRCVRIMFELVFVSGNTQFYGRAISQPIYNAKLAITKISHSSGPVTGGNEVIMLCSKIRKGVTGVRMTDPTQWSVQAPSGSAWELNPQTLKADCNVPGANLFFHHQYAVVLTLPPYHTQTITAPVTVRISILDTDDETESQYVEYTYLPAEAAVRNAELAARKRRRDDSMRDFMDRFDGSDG

GST-Dm-Relish = molecular target: T4, GST-Dm-Relish (UniProt Q94527)
T4 sequence: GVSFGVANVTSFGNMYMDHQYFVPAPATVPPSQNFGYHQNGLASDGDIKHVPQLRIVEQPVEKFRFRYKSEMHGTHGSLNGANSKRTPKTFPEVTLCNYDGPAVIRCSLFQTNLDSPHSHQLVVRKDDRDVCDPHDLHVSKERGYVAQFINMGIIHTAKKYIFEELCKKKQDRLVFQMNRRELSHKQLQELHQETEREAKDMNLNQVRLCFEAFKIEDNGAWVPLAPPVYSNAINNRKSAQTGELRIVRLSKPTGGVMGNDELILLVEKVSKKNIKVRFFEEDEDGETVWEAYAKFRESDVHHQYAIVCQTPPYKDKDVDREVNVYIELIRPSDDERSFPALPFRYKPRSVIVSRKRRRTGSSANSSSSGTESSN

GST-Aq-NF-kB = molecular target: T5, GST-Aq-NF-kB (UniProt A9Y5G7)
T5 sequence: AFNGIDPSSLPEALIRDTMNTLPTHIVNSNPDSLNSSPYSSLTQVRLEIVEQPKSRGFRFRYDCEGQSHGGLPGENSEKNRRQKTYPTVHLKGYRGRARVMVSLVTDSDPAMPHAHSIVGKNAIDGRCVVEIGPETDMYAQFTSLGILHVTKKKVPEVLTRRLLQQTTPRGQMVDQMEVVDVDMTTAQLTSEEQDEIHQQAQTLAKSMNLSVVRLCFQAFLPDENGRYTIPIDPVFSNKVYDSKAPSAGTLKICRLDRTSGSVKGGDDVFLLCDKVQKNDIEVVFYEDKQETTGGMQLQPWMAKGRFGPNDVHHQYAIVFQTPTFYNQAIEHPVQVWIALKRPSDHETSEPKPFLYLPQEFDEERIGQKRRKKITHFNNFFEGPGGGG

| Sequence | binding signal (GST-Ap-NF-kB RHD) [z-score] | binding signal [1] [z-score] | binding signal (GST-Co-NF-kB) [z-score] | binding signal (GST-Dm-Relish) [z-score] | binding signal (GST-Aq-NF-kB) [z-score] |
| --- | --- | --- | --- | --- | --- |
| CCGATTAACATCAGGTCACACTCTGATGTTAATCGGGTCTTGATTCGCTTGACGCTGCTG | -0.45 | -0.368 | -0.66 | -0.601 | -0.773 |
| CCGATTAACATCATACTAGTTCCTGATGTTAATCGGGTCTTGATTCGCTTGACGCTGCTG | 0.244 | -0.142 | 0.325 | -0.364 | -0.0916 |
| CCGATTAACATCAGGTATTTCCATGATGTTAATCGGGTCTTGATTCGCTTGACGCTGCTG | 0.66 | 0.664 | 0.258 | 2.79 | 3.5 |
| CCGATTAACATCATATGAGGACCTGATGTTAATCGGGTCTTGATTCGCTTGACGCTGCTG | -0.304 | -0.632 | 0.258 | -0.242 | -0.248 |
| CCGATTAACATCAGAGTTAGTTTTGATGTTAATCGGGTCTTGATTCGCTTGACGCTGCTG | -0.393 | 0.0717 | -0.567 | -0.309 | -0.539 |
| CCGATTAACATCAAAGTCCTGTTTGATGTTAATCGGGTCTTGATTCGCTTGACGCTGCTG | -0.442 | -0.847 | -1.26 | -0.198 | -0.382 |
| CCGATTAACATCAACGATATGGTTGATGTTAATCGGGTCTTGATTCGCTTGACGCTGCTG | -0.567 | -0.119 | -0.279 | -0.603 | -0.657 |
| CCGATTAACATCACGTCGAGTTTTGATGTTAATCGGGTCTTGATTCGCTTGACGCTGCTG | -0.317 | -0.284 | -0.729 | -0.112 | -0.275 |
| CCGATTAACATCAGAGAGGTATTTGATGTTAATCGGGTCTTGATTCGCTTGACGCTGCTG | 0.0479 | -0.655 | 0.349 | -0.143 | -0.0797 |
| CCGATTAACATCAAGTCAACGGGTGATGTTAATCGGGTCTTGATTCGCTTGACGCTGCTG | 0.338 | 0.219 | 0.796 | 0.721 | 0.411 |
| CCGATTAACATCACGCAGTCAGATGATGTTAATCGGGTCTTGATTCGCTTGACGCTGCTG | -0.0846 | -0.102 | -0.938 | 0.162 | -0.461 |
| CCGATTAACATCACTTACATTGGTGATGTTAATCGGGTCTTGATTCGCTTGACGCTGCTG | 0.166 | -0.0573 | 0.148 | 0.711 | -0.262 |
| CCGATTAACATCACAGTCATTGTTGATGTTAATCGGGTCTTGATTCGCTTGACGCTGCTG | -0.324 | -0.0223 | 0.0536 | 0.0138 | -0.589 |
| CCGATTAACATCAGGAAGTTCCATGATGTTAATCGGGTCTTGATTCGCTTGACGCTGCTG | -0.0938 | 0.00627 | -0.292 | 0.562 | 1.48 |
| CCGATTAACATCAATGAATTTCCTGATGTTAATCGGGTCTTGATTCGCTTGACGCTGCTG | -0.198 | -0.326 | 0.703 | 0.247 | 0.654 |
| CCGATTAACATCAGTGCGGTCTGTGATGTTAATCGGGTCTTGATTCGCTTGACGCTGCTG | -0.000285 | -0.144 | 0.303 | 0.39 | -0.15 |
| CCGATTAACATCAGGACGTTCCATGATGTTAATCGGGTCTTGATTCGCTTGACGCTGCTG | -0.303 | -0.0881 | -1.42 | 0.77 | 0.203 |
| CCGATTAACATCAAACGAGACTATGATGTTAATCGGGTCTTGATTCGCTTGACGCTGCTG | -0.591 | 0.498 | 0.146 | -0.635 | -0.499 |
| CCGATTAACATCATTGTGTTTTGTGATGTTAATCGGGTCTTGATTCGCTTGACGCTGCTG | 0.219 | -0.359 | 0.557 | 0.493 | -0.489 |
| CCGATTAACATCACACTGTTCAGTGATGTTAATCGGGTCTTGATTCGCTTGACGCTGCTG | 0.352 | 0.98 | -0.622 | 0.612 | 0.164 |
| CCGATTAACATCATTCCGGAATATGATGTTAATCGGGTCTTGATTCGCTTGACGCTGCTG | -0.378 | 0.174 | -0.782 | -0.649 | 0.345 |
| CCGATTAACATCAACAGACACAGTGATGTTAATCGGGTCTTGATTCGCTTGACGCTGCTG | 0.187 | 0.491 | 0.478 | 0.453 | -0.35 |
| CCGATTAACATCATGGCTGTATGTGATGTTAATCGGGTCTTGATTCGCTTGACGCTGCTG | -0.164 | 0.143 | 0.499 | 0.486 | -0.428 |
| CCGATTAACATCACGTATCAAATTGATGTTAATCGGGTCTTGATTCGCTTGACGCTGCTG | -0.394 | 0.17 | 0.163 | -0.167 | -0.309 |
| CCGATTAACATCAGCTCGGTGTGTGATGTTAATCGGGTCTTGATTCGCTTGACGCTGCTG | 0.363 | -0.29 | 0.243 | 0.489 | -0.177 |
| CCGATTAACATCAGTCCATTCTCTGATGTTAATCGGGTCTTGATTCGCTTGACGCTGCTG | -0.496 | -0.42 | -0.33 | -1.02 | -0.273 |
| CCGATTAACATCACGTGAGCGGCTGATGTTAATCGGGTCTTGATTCGCTTGACGCTGCTG | 0.0515 | -0.301 | -0.293 | -0.235 | -0.415 |
